B1: SI-55E1 (other)
heavy: DVVMTQSPSTLSASVGDRVTINCQASESISSWLAWYQQKPGKAPKLLIYEASKLASGVPSRFSGSGSGTEFTLTISSLQPDDFATYYCQGYFYFISRTYVNSFGGGTKVEIKGGGGSGGGGSGGGGSGGGGSEVQLVESGGGLVQPGGSLRLSCAASGFTISTNAMSWVRQAPGKGLEWIGVITGRDITYYASWAKGRFTISRDNSKNTLYLQMNSLRAEDTAVYYCARDGGSSAITSNNIWGQGTLVTVSTGGGGSGGGGSQVQLQQSGAEVKKPGSSVKVSCKASGYTFTNYYIYWVRQAPGQGLEWIGGINPTSGGSNFNEKFKTRVTITADESSTTAYMELSSLRSEDTAFYFCTRQGLWFDSDGRGFDFWGQGTTVTVSSASTKGPSVFPLAPSSKSTSGGTAALGCLVKDYFPEPVTVSWNSGALTSGVHTFPAVLQSSGLYSLSSVVTVPSSSLGTQTYICNVNHKPSNTKVDKRV[human IgG1 Fc with changes cut from this listing]GGGGSGGGGSEVQLLESGGGLVQPGGSLRLSCAASGFSFSSGYDMCWVRQAPGKGLEWIACIAAGSAGITYDANWAKGRFTISRDNSKNTLYLQMNSLRAEDTAVYYCARSAFSFDYAMDLWGQGTLVTVSSGGGGSGGGGSGGGGSGGGGSDIQMTQSPSTLSASVGDRVTITCQASQSISSHLNWYQQKPGKAPKLLIYKASTLASGVPSRFSGSGSGTEFTLTISSLQPDDFATYYCQQGYSWGNVDNVFGGGTKVEIKGGGGSGGGGSGRSLVESGGGLVQPGGSLRLSCTASGFTISSYHMQWVRQAPGKGLEYIGTISSGGNVYYASSARGRFTISRPSSKNTVDLQMNSLRAEDTAVYYCARDSGYSDPMWGQGTLVTVSSGGGGSGGGGSGGGGSGGGGSDVVMTQSPSSVSASVGDRVTITCQASQNIRTYLSWYQQKPGKAPKLLIYAAANLASGVPSRFSGSGSGTDFTLTISDLEPGDAATYYCQSTYLGTDYVGGAFGGGTKVEIK
light: DIQMTQSPSSLSASVGDRVTITCRSSQNIVHSNGNTYLDWYQQTPGKAPKLLIYKVSNRFSGVPSRFSGSGSGTDFTFTISSLQPEDIATYYCFQYSHVPWTFGQGTKLQITRTVAAPSVFIFPPSDEQLKSGTASVVCLLNNFYPREAKVQWKVDNALQSGNSQESVTEQDSKDSTYSLSSTLTLSKADYEKHKVYACEVTHQGLSSPVTKSFNRGEC
B2: SI-55E2 (other)
heavy: DVVMTQSPSTLSASVGDRVTINCQASESISSWLAWYQQKPGKAPKLLIYEASKLASGVPSRFSGSGSGTEFTLTISSLQPDDFATYYCQGYFYFISRTYVNSFGGGTKVEIKGGGGSGGGGSGGGGSGGGGSEVQLVESGGGLVQPGGSLRLSCAASGFTISTNAMSWVRQAPGKGLEWIGVITGRDITYYASWAKGRFTISRDNSKNTLYLQMNSLRAEDTAVYYCARDGGSSAITSNNIWGQGTLVTVSTGGGGSGGGGSEVQLVQSGAEVKKPGASVKVSCKASGYRFTNYWIHWVRQAPGQGLEWIGGINPGNNYATYRRKFQGRVTMTADTSTSTVYMELSSLRSEDTAVYYCTREGYGNYGAWFAYWGQGTLVTVSSASTKGPSVFPLAPSSKSTSGGTAALGCLVKDYFPEPVTVSWNSGALTSGVHTFPAVLQSSGLYSLSSVVTVPSSSLGTQTYICNVNHKPSNTKVDKRV[human IgG1 Fc with changes cut from this listing]GGGGSGGGGSEVQLLESGGGLVQPGGSLRLSCAASGFSFSSGYDMCWVRQAPGKGLEWIACIAAGSAGITYDANWAKGRFTISRDNSKNTLYLQMNSLRAEDTAVYYCARSAFSFDYAMDLWGQGTLVTVSSGGGGSGGGGSGGGGSGGGGSDIQMTQSPSTLSASVGDRVTITCQASQSISSHLNWYQQKPGKAPKLLIYKASTLASGVPSRFSGSGSGTEFTLTISSLQPDDFATYYCQQGYSWGNVDNVFGGGTKVEIKGGGGSGGGGSGRSLVESGGGLVQPGGSLRLSCTASGFTISSYHMQWVRQAPGKGLEYIGTISSGGNVYYASSARGRFTISRPSSKNTVDLQMNSLRAEDTAVYYCARDSGYSDPMWGQGTLVTVSSGGGGSGGGGSGGGGSGGGGSDVVMTQSPSSVSASVGDRVTITCQASQNIRTYLSWYQQKPGKAPKLLIYAAANLASGVPSRFSGSGSGTDFTLTISDLEPGDAATYYCQSTYLGTDYVGGAFGGGTKVEIK
light: DVQVTQSPSSLSASVGDRVTITCRSSQSLANSYGNTFLSWYLHKPGKAPQLLIYGISNRFSGVPDRFSGSGSGTDFTLTISSLQPEDFATYYCLQGTHQPYTFGQGTKVEIKRTVAAPSVFIFPPSDEQLKSGTASVVCLLNNFYPREAKVQWKVDNALQSGNSQESVTEQDSKDSTYSLSSTLTLSKADYEKHKVYACEVTHQGLSSPVTKSFNRGEC

How the values were obtained:
[1] = biological target: T1, EGFR on tumor cells (MDA-MB-231, HeLa) (UniProt P00533); experiment: cell-based or functional assay
[2] = biological target: T1, EGFR on tumor cells (MDA-MB-231, HeLa); experiment: cell-based or functional assay; remark: listed apart in the source

| Binder | TDCC EC50 (pM), HeLa target cells, E:T 10 [1] [pM] | TDCC EC50 (pM), MDA-MB-231 target cells, E:T 5 [2] [pM] |
| --- | --- | --- |
| B1 | 13 | 0.017 |
| B2 | 9 | 0.018 |

From patent US20230113563A1 (SYSTIMMUNE, published 2023)
